Data as given in PubChem BioAssay (NCI).
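Interpolation was linear, between the two tested concentrations surrounding the appropriate level; five concentrations were tested over 48 hours in 96-well plates. Here, GI50 denotes the concentration required for 50% inhibition of growth.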 Certain results were filed several times, with different values. This is not the full list of results. An entry can have further records. For some of these results: Records of one sample usually come from different ranges of test concentrations, not given here; some values may only mark the edge of a range. For some of these results: Values that stand side by side are repeated measurements in other runs, samples, wells, individuals or studies. Brackets tell where a record comes from. Letters count within one entry.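 TGI denotes the concentration required for complete inhibition of growth.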

Columns and labels:
Experiment in all cases: DTP human tumour cell line panel, 48 h
NCI/ADR-RES ovarian = tested on: NCI/ADR-RES ovarian
NCI-H460 lung = tested on: NCI-H460 lung
HOP-92 NSCLC = tested on: HOP-92 NSCLC
SK-OV-3 ovarian = tested on: SK-OV-3 ovarian
SF-539 CNS = tested on: SF-539 CNS
KM12 colon = tested on: KM12 colon
IGROV1 ovarian = tested on: IGROV1 ovarian
SW-620 colon = tested on: SW-620 colon
A549 NSCLC = tested on: A549 NSCLC
BT-549 breast = tested on: BT-549 breast
HS 578T breast = tested on: HS 578T breast
SF-268 CNS = tested on: SF-268 CNS
NCI-H23 lung = tested on: NCI-H23 lung
SF-295 CNS = tested on: SF-295 CNS
EKVX NSCLC = tested on: EKVX NSCLC
KM20L2 colon = tested on: KM20L2 colon
LOX IMVI melanoma = tested on: LOX IMVI melanoma
MCF7 breast = tested on: MCF7 breast
OVCAR-8 ovarian = tested on: OVCAR-8 ovarian
CAKI-1 renal = tested on: CAKI-1 renal
MDA-N = tested on: MDA-N
HCT-116 colon = tested on: HCT-116 colon
RPMI-8226 leukemia = tested on: RPMI-8226 leukemia
U251 CNS = tested on: U251 CNS
UACC-62 melanoma = tested on: UACC-62 melanoma
M14 melanoma = tested on: M14 melanoma
TK-10 renal = tested on: TK-10 renal
CCRF-CEM leukemia = tested on: CCRF-CEM leukemia
MOLT-4 leukemia = tested on: MOLT-4 leukemia
SNB-75 CNS = tested on: SNB-75 CNS
SNB-19 CNS = tested on: SNB-19 CNS
NCI-H522 lung = tested on: NCI-H522 lung
HOP-62 NSCLC = tested on: HOP-62 NSCLC
RXF 393 renal = tested on: RXF 393 renal
HCC-2998 colon = tested on: HCC-2998 colon
COLO 205 colon = tested on: COLO 205 colon
MDA-MB-231 breast = tested on: MDA-MB-231 breast
HT29 colon = tested on: HT29 colon
NCI-H226 lung = tested on: NCI-H226 lung
UO-31 renal = tested on: UO-31 renal
HCT-15 colon = tested on: HCT-15 colon
SK-MEL-5 melanoma = tested on: SK-MEL-5 melanoma

## COC(=O)Nc1nc2ccc(C(=O)c3ccccc3)cc2[nH]1
NCI/ADR-RES ovarian
  TGI: > 100 µM [sample A, 1 test] and 2.2 µM [sample B, 1 test]
NCI-H460 lung
  TGI: 3.89 µM [sample A, mean of 2 tests] and > 64.4 µM [sample B, mean of 2 tests]
HOP-92 NSCLC
  GI50: 8.31 µM [sample A, mean of 2 tests] and 390 nM [sample B, mean of 2 tests]
SK-OV-3 ovarian
  TGI: 65.4 µM [sample A, mean of 2 tests] and 3.46 µM [sample B, mean of 2 tests]
SF-539 CNS
  TGI: 699 nM [sample A, mean of 2 tests] and > 50.7 µM [sample B, mean of 2 tests]
KM12 colon
  TGI: 2.09 µM [sample A, mean of 2 tests] and 29.4 µM [sample B, mean of 2 tests]

## COC(=O)CCNc1c2ccccc2nc2cccc([N+](=O)[O-])c12
IGROV1 ovarian
  GI50: 1.67 nM and 18.3 nM
SW-620 colon
  TGI: 1.9 nM and 79.2 nM
A549 NSCLC
  GI50: 1 nM and 48.6 nM
BT-549 breast
  GI50: 1.45 nM and 16.7 nM
  TGI: 7.9 nM and 102 nM
HS 578T breast
  GI50: 1.54 nM and 19.8 nM
SF-268 CNS
  TGI: 4.26 nM and 141 nM
NCI-H23 lung
  TGI: 2.6 µM and 19.5 nM
SF-295 CNS
  TGI: 26.3 nM and 480 nM
EKVX NSCLC
  GI50: 1.07 nM and 31.1 nM
  TGI: 7.85 nM and 146 nM

## CCC1(OC(=O)CN)C(=O)OCc2c1cc1n(c2=O)Cc2cc3ccccc3nc2-1 (stereo not drawn)
KM20L2 colon
  TGI: 690 nM and 38.6 µM
NCI-H460 lung
  TGI: 528 nM and 25.8 nM
LOX IMVI melanoma
  TGI: 135 nM and 1.56 µM
MCF7 breast
  TGI: 416 nM and > 100 µM
OVCAR-8 ovarian
  TGI: 302 nM [mean of 2 tests] and > 25.7 µM [mean of 3 tests]
CAKI-1 renal
  TGI: 55.3 nM and 1.34 µM
HOP-92 NSCLC
  TGI: 676 nM and 9.18 µM
MDA-N
  TGI: 473 nM and > 100 µM
SF-295 CNS
  TGI: 28.3 nM and 1.41 µM

## CCCCCCCCCCCCCCCCOP(=O)([O-])OCC[N+](C)(C)C
HCT-116 colon
  TGI: 44.3 µM [sample A] and 3.78 µM [sample B]
RPMI-8226 leukemia
  TGI: 30.7 µM [sample A] and 1.89 µM [sample B]
U251 CNS
  TGI: 36.2 µM [sample A] and 2.22 µM [sample B]
UACC-62 melanoma
  TGI: 49.9 µM [sample A] and 4.54 µM [sample B]
M14 melanoma
  TGI: 33.4 µM [sample A] and 3.2 µM [sample B]
NCI-H460 lung
  TGI: 22.3 µM [sample A] and 2.07 µM [sample B]
LOX IMVI melanoma
  TGI: 55.3 µM [sample A] and 2.75 µM [sample B]
A549 NSCLC
  TGI: 65.5 µM [sample A] and 4.4 µM [sample B]
TK-10 renal
  TGI: 6.6 µM [sample A] and 443 nM [sample B]
CCRF-CEM leukemia
  TGI: 28.3 µM [sample A, mean of 4 tests] and 2.7 µM [sample B, 1 test]
MOLT-4 leukemia
  TGI: 31.3 µM [sample A] and 2.65 µM [sample B]
SNB-75 CNS
  TGI: 48.5 µM [sample A] and 4.3 µM [sample B]
SNB-19 CNS
  TGI: 36.1 µM [sample A] and 2.58 µM [sample B]
NCI-H522 lung
  TGI: 43.2 µM [sample A] and 2.22 µM [sample B]
HOP-62 NSCLC
  TGI: 36.8 µM [sample A] and 3.47 µM [sample B]
RXF 393 renal
  TGI: 23.7 µM [sample A] and 1.83 µM [sample B]
HCC-2998 colon
  TGI: 25.4 µM [sample A] and 2.37 µM [sample B]
COLO 205 colon
  TGI: 29 µM [sample A] and 1.5 µM [sample B]
MDA-MB-231 breast
  TGI: 41.9 µM [sample A] and 2.82 µM [sample B]
HT29 colon
  TGI: 37.7 µM [sample A] and 1.5 µM [sample B]
NCI-H226 lung
  TGI: 47.7 µM [sample A] and 3.18 µM [sample B]
UO-31 renal
  TGI: 47.4 µM [sample A] and 3.08 µM [sample B]
HCT-15 colon
  TGI: 29.5 µM [sample A] and 2.42 µM [sample B]

## Cc1c(N)nc(C(CC(N)=O)NCC(N)C(N)=O)nc1C(=O)NC(C(=O)NC(C)C(O)C(C)C(=O)NC(C(=O)NCCc1nc(-c2nc(C(=O)NCCCNC(C)c3ccccc3)cs2)cs1)C(C)O)C(OC1OC(CO)C(O)C(O)C1OC1OC(CO)C(O)C(OC(N)=O)C1O)c1cnc[nH]1 (stereo not drawn)
NCI-H460 lung
  TGI: 8.13 µM and > 100 µM
CAKI-1 renal
  TGI: 1.41 µM and > 100 µM
UO-31 renal
  TGI: 4.7 µM and 81 µM

## CO[C@H]1C[C@](C)(O)Cc2cc3c(c(O)c21)C(=O)c1c(O)cc2c(c1C3=O)O[C@@H]1O[C@@]2(C)[C@H](O)[C@@H](N(C)C)[C@@H]1O
IGROV1 ovarian
  GI50: 9.68 nM and 3.2 µM
UACC-62 melanoma
  GI50: 9.34 nM and 1.07 µM
SNB-75 CNS
  GI50: 1.54 µM [mean of 3 tests] and 7.2 nM [mean of 4 tests]
  TGI: 9.97 nM, 4.47 µM, 4.21 µM
NCI-H23 lung
  GI50: 647 nM [mean of 3 tests] and 9.51 nM [mean of 4 tests]
SK-MEL-5 melanoma
  GI50: 6.16 nM [mean of 3 tests] and 895 nM [mean of 4 tests]
